Reference: the supplement of paper PMC4967469
A lower IC50 marks a more sensitive line; fits outside the tested doses are given as limits. AUC sums up the same curve from the lowest dose to the 256-fold higher top dose; values near 1 show little effect. For some of these results: An inferred top dose comes from the curve model; the source does not state it. For some of these results: Where an entry number is given, a second screen of the drug exists; the two often differ.

How the values were obtained:
Test in all cases: Viability of human cancer cell lines after 72 h of drug (GDSC screen)
[1] = compound: CC1(C)CC(=O)c2c(C(F)(F)F)nn(-c3ccc(C(N)=O)c(N[C@H]4CC[C@H](O)CC4)c3)c2C1 [SNX-2112]; conditions: top dose 2.56 µM
Description: (§1)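 Human cancer cell lines in 384-well plates, medium with 10% serum, drug for 72 h over a 256-fold dose range (nine 2-fold or five 4-fold steps up to the top dose). Adherent lines were fixed and stained with the nucleic acid dye Syto60, suspension lines read with resazurin; signal relative to control wells, capped at 0 and 100%. One two-parameter sigmoid per drug and line, fitted in a mixed model over all curves with the slope shared within a line.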

[2] = compound: CC[C@]1(O)C[C@@H]2CN(CCc3c([nH]c4ccccc34)[C@@](C(=O)OC)(c3cc4c(cc3OC)N(C)[C@H]3[C@@](O)(C(=O)OC)[C@H](OC(C)=O)[C@]5(CC)C=CCN6CC[C@]43[C@@H]65)C2)C1 [Vinblastine]; conditions: top dose 0.1 µM; top dose inferred
Description: as §1

[3] = compound: CN(C)C/C=C/C(=O)Nc1cc2c(Nc3ccc(F)c(Cl)c3)ncnc2cc1O[C@H]1CCOC1 [Afatinib]
Description: as §1

[4] = compound: O=C(NC1CC1)c1cccc(-c2ccc3c(NC(=O)C4CC4)n[nH]c3c2)c1 [XMD13-2]; conditions: top dose 10.24 µM; top dose inferred
Description: as §1

[5] = top dose 0.5 µM, screen: GDSC drug entry 1032
[6] = top dose 10 µM, screen: GDSC drug entry 1377, top dose inferred

## A704 (kidney, adherent)
[1]
  AUC: 0.813
  IC50: 1330 nM
[2]
  AUC: 0.906
  IC50: > 100 nM
[3]; [5]
  AUC: 0.981
  IC50: > 500 nM
[3]; [6]
  AUC: 0.974
  IC50: > 10000 nM
[4]
  AUC: 0.989
  IC50: > 10.2 µM

## ABC-1 (lung adenocarcinoma, adherent)
[1]
  AUC: 0.718
  IC50: 763 nM
[2]
  AUC: 0.588
  IC50: 11.5 nM
[3]; [5]
  AUC: 0.983
  IC50: > 500 nM
[4]
  AUC: 0.913
  IC50: > 10.2 µM

## CADO-ES1 (Ewing sarcoma, suspension)
[1]
  AUC: 0.503
  IC50: 163 nM
[2]
  AUC: 0.963
  IC50: > 100 nM
[3]; [5]
  AUC: 0.977
  IC50: > 500 nM
[3]; [6]
  AUC: 0.986
  IC50: > 10000 nM
[4]
  AUC: 0.932
  IC50: > 10.2 µM

## CHSA0108 (chondrosarcoma, adherent)
[1]
  AUC: 0.984
  IC50: > 2560 nM
[2]
  AUC: 0.58
  IC50: 10.7 nM
[3]; [5]
  AUC: 0.981
  IC50: > 500 nM
[3]; [6]
  AUC: 0.966
  IC50: > 10000 nM
[4]
  AUC: 0.967
  IC50: > 10.2 µM

## COR-L321 (lung, suspension)
[1]
  AUC: 0.58
  IC50: 264 nM
[2]
  AUC: 0.77
  IC50: 38 nM
[3]; [5]
  AUC: 0.987
  IC50: > 500 nM
[3]; [6]
  AUC: 0.988
  IC50: > 10000 nM
[4]
  AUC: 0.887
  IC50: > 10.2 µM

## D-423MG (glioma, adherent)
[1]
  AUC: 0.587
  IC50: 293 nM
[2]
  AUC: 0.562
  IC50: 9.61 nM
[3]; [5]
  AUC: 0.952
  IC50: > 500 nM
[3]; [6]
  AUC: 0.976
  IC50: > 10000 nM
[4]
  AUC: 0.891
  IC50: > 10.2 µM

## D-566MG (glioma, adherent)
[1]
  AUC: 0.467
  IC50: 130 nM
[2]
  AUC: 0.318
  IC50: 1.96 nM
[3]; [5]
  AUC: 0.982
  IC50: > 500 nM
[3]; [6]
  AUC: 0.92
  IC50: > 10000 nM
[4]
  AUC: 0.921
  IC50: > 10.2 µM

## DOV13 (ovary, adherent)
[1]
  AUC: 0.984
  IC50: > 2560 nM
[2]
  AUC: 0.633
  IC50: 15.5 nM
[3]; [5]
  AUC: 0.836
  IC50: 406 nM
[3]; [6]
  AUC: 0.799
  IC50: 5680 nM
[4]
  AUC: 0.984
  IC50: > 10.2 µM

## DoTc2-4510 (cervix, adherent)
[1]
  AUC: 0.593
  IC50: 283 nM
[2]
  AUC: 0.655
  IC50: 16.4 nM
[3]; [5]
  AUC: 0.852
  IC50: 355 nM
[3]; [6]
  AUC: 0.865
  IC50: 8110 nM
[4]
  AUC: 0.962
  IC50: > 10.2 µM

## EFM-19 (breast, adherent)
[1]
  AUC: 0.932
  IC50: > 2560 nM
[2]
  AUC: 0.402
  IC50: 2.93 nM
[3]; [5]
  AUC: 0.973
  IC50: > 500 nM
[3]; [6]
  AUC: 0.939
  IC50: > 10000 nM
[4]
  AUC: 0.956
  IC50: > 10.2 µM

## EFO-21 (ovary, adherent)
[1]
  AUC: 0.9
  IC50: > 2560 nM
[2]
  AUC: 0.87
  IC50: > 100 nM
[3]; [5]
  AUC: 0.949
  IC50: > 500 nM
[3]; [6]
  AUC: 0.933
  IC50: > 10000 nM
[4]
  AUC: 0.925
  IC50: > 10.2 µM

## EMC-BAC-1 (lung adenocarcinoma, adherent)
[1]
  AUC: 0.685
  IC50: 571 nM
[2]
  AUC: 0.439
  IC50: 4.16 nM
[3]; [5]
  AUC: 0.533
  IC50: 38.9 nM
[3]; [6]
  AUC: 0.343
  IC50: 215 nM
[4]
  AUC: 0.828
  IC50: 7.58 µM

## EMC-BAC-2 (lung adenocarcinoma, adherent)
[1]
  AUC: 0.467
  IC50: 128 nM
[2]
  AUC: 0.414
  IC50: 3.48 nM
[3]; [5]
  AUC: 0.914
  IC50: > 500 nM
[3]; [6]
  AUC: 0.933
  IC50: > 10000 nM
[4]
  AUC: 0.829
  IC50: 8.02 µM

## ESO26 (oesophagus, adherent)
[1]
  AUC: 0.204
  IC50: 22.9 nM
[2]
  AUC: 0.643
  IC50: 15.2 nM
[3]; [5]
  AUC: 0.727
  IC50: 132 nM
[3]; [6]
  AUC: 0.747
  IC50: 3040 nM
[4]
  AUC: 0.917
  IC50: > 10.2 µM

## ESO51 (oesophagus, semi-adherent)
[1]
  AUC: 0.37
  IC50: 60.4 nM
[2]
  AUC: 0.705
  IC50: 30.4 nM
[3]; [5]
  AUC: 0.968
  IC50: > 500 nM
[3]; [6]
  AUC: 0.965
  IC50: > 10000 nM
[4]
  AUC: 0.925
  IC50: > 10.2 µM

## FLO-1 (oesophagus, adherent)
[1]
  AUC: 0.662
  IC50: 556 nM
[2]
  AUC: 0.506
  IC50: 6.52 nM
[3]; [5]
  AUC: 0.929
  IC50: > 500 nM
[3]; [6]
  AUC: 0.895
  IC50: > 10000 nM
[4]
  AUC: 0.925
  IC50: > 10.2 µM

## Hey (ovary, adherent)
[1]
  AUC: 0.398
  IC50: 85.4 nM
[2]
  AUC: 0.328
  IC50: 2.14 nM
[3]; [5]
  AUC: 0.988
  IC50: > 500 nM
[3]; [6]
  AUC: 0.918
  IC50: > 10000 nM
[4]
  AUC: 0.882
  IC50: 9.76 µM

## HuH-7 (liver, adherent)
[1]
  AUC: 0.895
  IC50: > 2560 nM
[2]
  AUC: 0.83
  IC50: 62.3 nM
[3]; [5]
  AUC: 0.982
  IC50: > 500 nM
[3]; [6]
  AUC: 0.986
  IC50: > 10000 nM
[4]
  AUC: 0.972
  IC50: > 10.2 µM

## IGR-37 (melanoma, adherent)
[1]
  AUC: 0.421
  IC50: 99 nM
[2]
  AUC: 0.452
  IC50: 4.69 nM
[3]; [5]
  AUC: 0.989
  IC50: > 500 nM
[3]; [6]
  AUC: 0.988
  IC50: > 10000 nM
[4]
  AUC: 0.989
  IC50: > 10.2 µM

## JHOS-2 (ovary, adherent)
[1]
  AUC: 0.634
  IC50: 401 nM
[2]
  AUC: 0.643
  IC50: 16.7 nM
[3]; [5]
  AUC: 0.724
  IC50: 152 nM
[3]; [6]
  AUC: 0.716
  IC50: 2850 nM
[4]
  AUC: 0.939
  IC50: > 10.2 µM

## JHOS-3 (ovary, adherent)
[1]
  AUC: 0.894
  IC50: > 2560 nM
[2]
  AUC: 0.958
  IC50: > 100 nM
[3]; [5]
  AUC: 0.974
  IC50: > 500 nM
[3]; [6]
  AUC: 0.902
  IC50: > 10000 nM
[4]
  AUC: 0.973
  IC50: > 10.2 µM

## KMS-11 (myeloma, suspension)
[1]
  AUC: 0.36
  IC50: 69.8 nM
[2]
  AUC: 0.474
  IC50: 5.37 nM
[3]; [5]
  AUC: 0.991
  IC50: > 500 nM
[3]; [6]
  AUC: 0.98
  IC50: > 10000 nM
[4]
  AUC: 0.934
  IC50: > 10.2 µM

## KYAE-1 (oesophagus, suspension)
[1]
  AUC: 0.396
  IC50: 80.1 nM
[2]
  AUC: 0.825
  IC50: 68.5 nM
[3]; [5]
  AUC: 0.423
  IC50: 18.8 nM
[3]; [6]
  AUC: 0.294
  IC50: 153 nM
[4]
  AUC: 0.91
  IC50: > 10.2 µM

## LU-65 (large cell lung carcinoma, suspension)
[1]
  AUC: 0.437
  IC50: 104 nM
[2]
  AUC: 0.987
  IC50: > 100 nM
[4]
  AUC: 0.948
  IC50: > 10.2 µM

## MC-IXC (neuroblastoma, adherent)
[1]
  AUC: 0.318
  IC50: 57.7 nM
[2]
  AUC: 0.429
  IC50: 4.21 nM
[3]; [5]
  AUC: 0.989
  IC50: > 500 nM
[3]; [6]
  AUC: 0.996
  IC50: > 10000 nM
[4]
  AUC: 0.933
  IC50: 9.2 µM
